Publication PMC8329185 (2021)

Molecular target: T1, GST-TrnSR-D750R/D751R (without mCherry) (human, UniProt Q9Y5L0 1-923, D750R | D751R)
T1 sequence: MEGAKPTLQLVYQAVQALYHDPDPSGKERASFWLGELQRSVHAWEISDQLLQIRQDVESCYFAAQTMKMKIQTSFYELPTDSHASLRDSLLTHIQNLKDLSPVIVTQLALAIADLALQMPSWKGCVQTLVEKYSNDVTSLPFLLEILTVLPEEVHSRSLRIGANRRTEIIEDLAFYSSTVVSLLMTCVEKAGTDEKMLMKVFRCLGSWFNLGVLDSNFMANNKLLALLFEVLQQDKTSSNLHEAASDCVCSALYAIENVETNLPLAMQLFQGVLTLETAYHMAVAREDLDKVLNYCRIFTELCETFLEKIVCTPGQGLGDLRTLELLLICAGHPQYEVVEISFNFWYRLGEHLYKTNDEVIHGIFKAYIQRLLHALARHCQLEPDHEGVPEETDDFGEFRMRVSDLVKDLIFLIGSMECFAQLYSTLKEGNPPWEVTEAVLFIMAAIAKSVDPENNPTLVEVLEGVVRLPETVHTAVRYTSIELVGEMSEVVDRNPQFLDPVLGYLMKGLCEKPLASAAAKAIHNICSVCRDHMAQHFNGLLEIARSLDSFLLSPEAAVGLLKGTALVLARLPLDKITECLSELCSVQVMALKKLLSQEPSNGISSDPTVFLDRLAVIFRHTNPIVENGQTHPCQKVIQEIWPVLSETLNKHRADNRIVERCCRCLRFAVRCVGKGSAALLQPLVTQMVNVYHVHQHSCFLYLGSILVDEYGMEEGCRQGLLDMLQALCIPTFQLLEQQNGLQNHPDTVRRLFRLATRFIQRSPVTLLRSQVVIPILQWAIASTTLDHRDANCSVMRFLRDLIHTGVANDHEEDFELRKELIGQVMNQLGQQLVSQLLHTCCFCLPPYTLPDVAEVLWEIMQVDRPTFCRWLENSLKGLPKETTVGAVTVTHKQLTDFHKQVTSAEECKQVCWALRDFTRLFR
Experiment: SPR

B1: His6-DNAJB1 (natural protein)
chain: MGKDYYQTLGLARGASDEEIKRAYRRQALRYHPDKNKEPGAEEKFKEIAEAYDVLSDPRKREIFDRYGEEGLKGSGPSGGSGGGANGTSFSYTFHGDPHAMFAEFFGGRNPFDTFFGQRNGEEGMDIDDPFSGFPMGMGGFTNVNFGRSRSAQEPARKKQ[about 150 residues not printed]PERIPQTSRTVLEQVLPI
koff: 0.00039 s⁻¹
